Source: the RNAGym collection of RNA variant scans (doi:10.1093/nar/gkz1192)
The source gives no read counts; variants with many changes may rest on few reads.

B1: CPEB3 Ribozyme (parent)
chain: UAACAGGGGGCCACAGCAGAAGCGUUCACGUCGCAGCCCCUGUCAGAUUCUGGUGAAUCUGCGAAUUCUGCUGUAUAUCUC

Variants of: B1
Assay: self-cleavage, relative activity (ratio to wild type); higher = more cleavage; in vitro, sequencing
In short: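 CPEB3 self-cleaving ribozyme mutant libraries were made by rounds of error-prone PCR, barcoded, and transcribed in vitro with T7 RNA polymerase for 5 hours at 37°C. Cleavage occurred during transcription and a 15 min DNase I step before EDTA stop. RNAs were reverse transcribed with template switching and Illumina-sequenced, with DNA sequencing mapping barcodes to variants. Relative activity is the variant's cleaved/total read fraction divided by wild type's (minimum 5 reads), averaged across three batches.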
With G7U G16C A18U C29G U74A U80C the self-cleavage was 0.31.
In the case of G7U G16U A64G, the self-cleavage is reported as 0.06.
In the case of G7U G19C A56U U60C A77G, the self-cleavage is reported as 0.04.
G7U G19C U31C U49C U54C A65G U72C showed a self-cleavage of 0.11.
G7U G19U U54C gave a self-cleavage of 0.05.
In the case of G7U G22U A35G U48C A64G U72A U76C, the self-cleavage is reported as 0.04.
Variant G7U G24A A57G has a self-cleavage of 0.14.
G7U G24A A57G A65G U66C U67C gave a self-cleavage of 0.04.
G7U G24A A64G gave a self-cleavage of 0.28.
In the case of G7U G30A C34U U80C, the self-cleavage is reported as 0.04.
G7U G30U A56G gave a self-cleavage of 0.13.
For G7U G30U U58C, the self-cleavage was 0.04.
G7U G30U U66C showed a self-cleavage of 0.15.
For G7U G33C U51A U80C, the self-cleavage was 0.05.
G7U G42U U48A showed a self-cleavage of 0.14.
Variant G7U G46A U51C U69A C71U has a self-cleavage of 0.05.
G7U U25A U26C U41C gave a self-cleavage of 0.06.
For G7U U25C A56G, the self-cleavage was 0.19.
Variant G7U U25C C34A has a self-cleavage of 0.2.
G7U U25C G73A showed a self-cleavage of 0.36.
G7U U25C U60A A75G gave a self-cleavage of 0.39.
In the case of G7U U25C U72A, the self-cleavage is reported as 0.23.
G7U U25C U78C showed a self-cleavage of 0.09.
With G7U U25G U31A U72A the self-cleavage was 0.09.
With G7U U26A A28G A45U U78C the self-cleavage was 0.08.
With G7U U26C A45G A57C U80C the self-cleavage was 0.12.
Variant G7U U26C U49C U60C has a self-cleavage of 0.17.
With G7U U26G A28U G33A the self-cleavage was 0.13.
In the case of G7U U26G A28U G33A U48A C71U, the self-cleavage is reported as 0.02.
Work on G7U U31A U60A yielded a self-cleavage of 0.2.
G7U U31A U69A gave a self-cleavage of 0.13.
G7U U31C A35G gave a self-cleavage of 0.16.
In the case of G7U U31C A35G U74A U78C, the self-cleavage is reported as 0.24.
In the case of G7U U31C C32U U41C A45G A65G, the self-cleavage is reported as 0.03.
Work on G7U U31C U66C U72A C79A U80A yielded a self-cleavage of 0.1.
Work on G7U U41C A47G U72C U78G U80A yielded a self-cleavage of 0.14.
G7U U41C A57G gave a self-cleavage of 0.42.
G7U U41C U51C G63C A64G gave a self-cleavage of 0.15.
G7U U43A U51G A56U A77U U78C showed a self-cleavage of 0.04.
Work on G7U U43A U72A U80A yielded a self-cleavage of 0.1.
With G7U U43C A47U U60C the self-cleavage was 0.11.
With G7U U43C A65G the self-cleavage was 0.08.
Work on G7U U43C G63A A65G U80C yielded a self-cleavage of 0.16.
In the case of G7U U43C U60C U69A U76C, the self-cleavage is reported as 0.08.
Variant G7U U43C U69A has a self-cleavage of 0.07.
With G7U U48A A56U U72C the self-cleavage was 0.11.
With G7U U48A U72C the self-cleavage was 0.16.
In the case of G7U U48C A56G U67C, the self-cleavage is reported as 0.11.
G7U U48C G53A A56G U67C gave a self-cleavage of 0.17.
With G7U U49C A57U G73C the self-cleavage was 0.2.
G7U U49C U72A showed a self-cleavage of 0.06.
G7U U60A U72C showed a self-cleavage of 0.19.
Variant G7U U66A A75G has a self-cleavage of 0.14.
With G8A A13C A28C U49C U69A the self-cleavage was 0.07.
Variant G8A A13C G24A U49C has a self-cleavage of 0.08.
With G8A A13C U31C U51A U76C the self-cleavage was 0.08.
For G8A A13G A18G A20U U26A A64G U78C, the self-cleavage was 0.03.
Variant G8A A13G A20G U31G U43C A64G has a self-cleavage of 0.05.
In the case of G8A A13G A21G A64G, the self-cleavage is reported as 0.07.
In the case of G8A A13G A21G U43A U49A U54A U69A, the self-cleavage is reported as 0.04.
G8A A13G A47G U72C showed a self-cleavage of 0.06.
G8A A13G C37U A45C gave a self-cleavage of 0.07.
With G8A A13G C38U the self-cleavage was 0.08.
Variant G8A A13G G19A U60A A64G has a self-cleavage of 0.06.
For G8A A13G G24A A28U U60A, the self-cleavage was 0.09.
G8A A13G U25C G52C U69A U80A gave a self-cleavage of 0.04.
In the case of G8A A13G U26C A45U, the self-cleavage is reported as 0.07.
Variant G8A A13G U26C U31C has a self-cleavage of 0.05.
For G8A A13U A15C U49A U51A U60C, the self-cleavage was 0.05.
With G8A A13U A15U A35G U72A A75G the self-cleavage was 0.4.
G8A A13U A28G G33U A45U gave a self-cleavage of 0.03.
G8A A13U A28G U43C G53U C71A gave a self-cleavage of 0.04.
In the case of G8A A13U A35G C62G A77U, the self-cleavage is reported as 0.08.
In the case of G8A A13U A64G U72C, the self-cleavage is reported as 0.24.
Variant G8A A13U C17U U41C U48C U60C A64G has a self-cleavage of 0.06.
G8A A13U G36A U72C gave a self-cleavage of 0.25.
G8A A13U G42A U54C showed a self-cleavage of 0.19.
G8A A13U U25C U80C showed a self-cleavage of 0.19.
Work on G8A A13U U41C G46U A64G yielded a self-cleavage of 0.08.
G8A A13U U60C showed a self-cleavage of 0.2.
With G8A A15C U31A U66A U72C the self-cleavage was 0.04.
In the case of G8A A15G A20G U67C U78A, the self-cleavage is reported as 0.09.
G8A A15G A21G A65G showed a self-cleavage of 0.39.
In the case of G8A A15G A21G C32G C44A G61C, the self-cleavage is reported as 0.04.
Work on G8A A15G A28G U43C U67A yielded a self-cleavage of 0.05.
Work on G8A A15G A28G U54G A57G U72C yielded a self-cleavage of 0.04.
Variant G8A A15G A64G U72G has a self-cleavage of 0.06.
In the case of G8A A15G C29A C37U U54A U69C, the self-cleavage is reported as 0.06.
G8A A15G C34U U51A U76C showed a self-cleavage of 0.21.
Variant G8A A15G C39A U54C A57U U78C has a self-cleavage of 0.04.
For G8A A15G C39G U43C A57G U60C, the self-cleavage was 0.12.
G8A A15G G30U A35U U80C showed a self-cleavage of 0.06.
In the case of G8A A15G G33U U41A U51A U60A U66C, the self-cleavage is reported as 0.04.
G8A A15G U25A A45G U51C showed a self-cleavage of 0.04.
Variant G8A A15G U25C has a self-cleavage of 0.31.
For G8A A15G U31C G61A, the self-cleavage was 0.19.
Work on G8A A15G U43C U51G yielded a self-cleavage of 0.07.
For G8A A15G U54C A56G, the self-cleavage was 0.08.
For G8A A15G U58C A64U U69A, the self-cleavage was 0.04.
Work on G8A A15G U58C U72C U78A yielded a self-cleavage of 0.04.
Work on G8A A15G U72A U76C yielded a self-cleavage of 0.26.
G8A A15U A21U A45U gave a self-cleavage of 0.24.
G8A A15U A28G A57G U67C showed a self-cleavage of 0.1.
Variant G8A A15U A28U A45U U51A has a self-cleavage of 0.16.
For G8A A15U C68G U69C, the self-cleavage was 0.07.
For G8A A15U U31G C38A U49C, the self-cleavage was 0.03.
With G8A A15U U41C G55U the self-cleavage was 0.09.
For G8A A15U U49C A56U, the self-cleavage was 0.05.
Work on G8A A15U U51A U54C yielded a self-cleavage of 0.26.
G8A A15U U60G gave a self-cleavage of 0.06.
In the case of G8A A15U U67C, the self-cleavage is reported as 0.17.
Work on G8A A18C U26C U31A U69C yielded a self-cleavage of 0.04.
For G8A A18C U31C A77G U78C, the self-cleavage was 0.07.
Variant G8A A18C U54G G73A has a self-cleavage of 0.54.
Work on G8A A18G A20C U66C U69C yielded a self-cleavage of 0.14.
In the case of G8A A18G A28G U51A A77G, the self-cleavage is reported as 0.06.
Work on G8A A18G A45U U60C U80C yielded a self-cleavage of 0.06.
Work on G8A A18G A56C U80C yielded a self-cleavage of 0.04.
G8A A18G A56G A64G gave a self-cleavage of 0.06.
For G8A A18G A56G U66C U80C, the self-cleavage was 0.05.
For G8A A18G A75U C79U, the self-cleavage was 0.08.
Variant G8A A18G C23A A45G U60C has a self-cleavage of 0.05.
Work on G8A A18G C27U U31A U43C G61C U69C yielded a self-cleavage of 0.05.
For G8A A18G C32G U41G U78C, the self-cleavage was 0.04.
G8A A18G C34G U54C A65G U76C showed a self-cleavage of 0.4.
G8A A18G U25C G52C G53A U60A gave a self-cleavage of 0.03.
For G8A A18G U26A A75G U78C, the self-cleavage was 0.22.
Variant G8A A18G U26A U31C A57G U67C has a self-cleavage of 0.07.
Variant G8A A18G U26C has a self-cleavage of 0.06.
Work on G8A A18G U43A yielded a self-cleavage of 0.09.
G8A A18G U48C A57G A64U gave a self-cleavage of 0.09.
Work on G8A A18G U48C U49C yielded a self-cleavage of 0.21.
Work on G8A A18U A21G yielded a self-cleavage of 0.17.
Work on G8A A18U A35U U41A A64U U67C yielded a self-cleavage of 0.03.
In the case of G8A A18U G24U U58G A65G C71U, the self-cleavage is reported as 0.03.
With G8A A18U G36A G73A the self-cleavage was 0.3.
G8A A18U U25C A45U U72A showed a self-cleavage of 0.08.
G8A A18U U58C C71U U72A U80C showed a self-cleavage of 0.12.
Variant G8A A18U U60A A77G has a self-cleavage of 0.18.
With G8A A18U U60C the self-cleavage was 0.2.
Work on G8A A18U U67C yielded a self-cleavage of 0.07.
Variant G8A A20C G30C U72A U80A has a self-cleavage of 0.04.
With G8A A20G A21G C32U A35U A45G U54C the self-cleavage was 0.05.
For G8A A20G A28U C39G A65G, the self-cleavage was 0.04.
Variant G8A A20G A35G C38A has a self-cleavage of 0.05.
With G8A A20G A56G A57G U60A the self-cleavage was 0.05.
G8A A20G C23G U26C C37U U78C U80C gave a self-cleavage of 0.04.
G8A A20G C37G showed a self-cleavage of 0.32.
Variant G8A A20G G30A A45G has a self-cleavage of 0.2.
For G8A A20G G33C U74A, the self-cleavage was 0.07.
With G8A A20G U41A A56U U60C the self-cleavage was 0.06.
G8A A20G U41C U54C A77G gave a self-cleavage of 0.05.
With G8A A20G U41C U76A the self-cleavage was 0.41.
Work on G8A A20G U51C G55A yielded a self-cleavage of 0.31.
G8A A20G U60C gave a self-cleavage of 0.18.
In the case of G8A A20G U66A, the self-cleavage is reported as 0.13.
G8A A20G U80A showed a self-cleavage of 0.3.
Variant G8A A20U A21G U69C has a self-cleavage of 0.05.
In the case of G8A A20U A35U C37U A56G A65G U67C, the self-cleavage is reported as 0.02.
G8A A20U C27U U72A U80C gave a self-cleavage of 0.05.
Work on G8A A20U C29G C59G U80C yielded a self-cleavage of 0.
Variant G8A A20U C34G has a self-cleavage of 0.06.
In the case of G8A A20U G36C U48C A65C, the self-cleavage is reported as 0.
With G8A A20U U31G U43A A45C U72C A77U the self-cleavage was 0.04.
Work on G8A A20U U48C yielded a self-cleavage of 0.06.
For G8A A20U U51C A57G U74A, the self-cleavage was 0.36.
For G8A A21G A28G U41G U49C U67A A75G, the self-cleavage was 0.02.
